{"source": "paper PMC4336329", "about": "(PLoS ONE, 2015)", "note": "The campaign covered roughly 310,000 compounds. About 14,000 (4.5%) showed an effect of 50% or more. The effect is printed as a negative number. Some of the results follow.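 Further: peak tail current of the secondary pulse compared with the same well before compound.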", "data": [{"target": "human ether-à-go-go-related gene (hERG) potassium channel (human, UniProt Q12809)", "sequence (Q12809 whole entry, looked up)": "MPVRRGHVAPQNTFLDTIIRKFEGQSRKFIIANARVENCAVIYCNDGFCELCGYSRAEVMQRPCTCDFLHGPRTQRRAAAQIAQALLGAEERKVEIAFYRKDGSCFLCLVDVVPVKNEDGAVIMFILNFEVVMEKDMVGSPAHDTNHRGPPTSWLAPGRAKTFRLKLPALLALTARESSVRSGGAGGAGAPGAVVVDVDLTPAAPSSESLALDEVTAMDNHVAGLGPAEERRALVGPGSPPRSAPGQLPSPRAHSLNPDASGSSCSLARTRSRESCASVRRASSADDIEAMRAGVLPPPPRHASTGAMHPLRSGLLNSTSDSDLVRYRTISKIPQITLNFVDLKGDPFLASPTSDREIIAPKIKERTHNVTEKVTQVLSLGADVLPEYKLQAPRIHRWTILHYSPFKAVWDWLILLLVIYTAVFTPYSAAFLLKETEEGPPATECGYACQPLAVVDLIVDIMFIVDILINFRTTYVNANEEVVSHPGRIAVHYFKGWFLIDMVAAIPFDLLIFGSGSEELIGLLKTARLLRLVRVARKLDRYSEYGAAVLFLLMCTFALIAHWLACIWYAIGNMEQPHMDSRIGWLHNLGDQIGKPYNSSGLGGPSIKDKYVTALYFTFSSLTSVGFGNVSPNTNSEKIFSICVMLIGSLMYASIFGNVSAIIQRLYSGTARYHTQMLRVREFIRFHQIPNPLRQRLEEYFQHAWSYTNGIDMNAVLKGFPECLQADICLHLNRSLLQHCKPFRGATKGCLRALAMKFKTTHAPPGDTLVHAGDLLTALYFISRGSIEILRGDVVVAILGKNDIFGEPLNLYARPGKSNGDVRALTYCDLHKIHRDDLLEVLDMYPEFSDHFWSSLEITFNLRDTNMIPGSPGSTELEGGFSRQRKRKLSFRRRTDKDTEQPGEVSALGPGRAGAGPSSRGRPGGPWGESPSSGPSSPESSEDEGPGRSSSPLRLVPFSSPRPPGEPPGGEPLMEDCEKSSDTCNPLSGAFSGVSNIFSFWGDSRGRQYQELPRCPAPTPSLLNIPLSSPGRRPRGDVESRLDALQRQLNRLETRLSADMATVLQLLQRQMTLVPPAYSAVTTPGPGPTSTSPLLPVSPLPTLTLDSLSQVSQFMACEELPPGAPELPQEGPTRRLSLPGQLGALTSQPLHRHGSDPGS", "assay": "primary screen, population patch clamp on CHO cells stably expressing hERG", "units": {"hERG current change (%, negative = inhibition) at 10uM": "%"}, "values": [{"smiles": "CCCC(=O)Nc1ccc2c(c1)nc1n2CCSC1", "hERG current change (%, negative = inhibition) at 10uM": -6.26}, {"smiles": "Cl.Oc1ccccc1Nc1nc(NCc2ccccc2)c2ccccc2n1", "hERG current change (%, negative = inhibition) at 10uM": -1.42}, {"smiles": "CN(Cc1ccccc1)c1nnc(N)s1", "hERG current change (%, negative = inhibition) at 10uM": 8.4}, {"smiles": "CC(C)C(=O)Nc1ccc2c(c1)Cc1cc(NC(=O)C(C)C)ccc1-2", "hERG current change (%, negative = inhibition) at 10uM": 25.5}, {"smiles": "COc1ccc(C2C(C(C)=O)=C(C)N=c3s/c(=C\\c4ccco4)c(=O)n32)c(OC)c1", "note": "(stereo not drawn)", "hERG current change (%, negative = inhibition) at 10uM": -27.3}, {"smiles": "CC(=O)N1CCc2cc(S(=O)(=O)CCC(=O)N3CCN(c4ccccc4)CC3)ccc21", "hERG current change (%, negative = inhibition) at 10uM": 7.15}, {"smiles": "CCCNS(=O)(=O)/C=C/c1ccccc1", "hERG current change (%, negative = inhibition) at 10uM": 2.98}, {"smiles": "Fc1ccc(NC(=S)Nc2ccccc2N2CCOCC2)cc1Cl", "hERG current change (%, negative = inhibition) at 10uM": -10.7}, {"smiles": "COc1ccc2c(c1)sc1nc(-c3ccccc3)cn12", "hERG current change (%, negative = inhibition) at 10uM": -6.02}, {"smiles": "COc1ccc(/C=C/c2nnc(NC(=O)COc3ccccc3)s2)cc1", "hERG current change (%, negative = inhibition) at 10uM": 20.5}, {"smiles": "O=c1cnnc(Nc2ccc(F)cc2)[nH]1", "hERG current change (%, negative = inhibition) at 10uM": 23.3}, {"smiles": "COc1cc(CC(=O)Nc2nc(C)cs2)cc(OC)c1OC", "hERG current change (%, negative = inhibition) at 10uM": 5.84}, {"smiles": "COc1ccc(NC(=O)C2C3C=CC4(CN(Cc5cccnc5)C(=O)C24)O3)c(OC)c1", "note": "(stereo not drawn)", "hERG current change (%, negative = inhibition) at 10uM": 13.9}, {"smiles": "O=C(c1cccnc1)N1N=C(C2CC2)CC1(O)C(F)(F)F", "note": "(stereo not drawn)", "hERG current change (%, negative = inhibition) at 10uM": 17.2}, {"smiles": "COc1ccc(CN2CC(C(=O)NCCCN3CCN(Cc4ccccc4)CC3)CC2=O)cc1", "note": "(stereo not drawn)", "hERG current change (%, negative = inhibition) at 10uM": -7.06}, {"smiles": "O=C1CC(=O)NC(SCC(=O)Nc2ccccc2[N+](=O)[O-])=N1", "hERG current change (%, negative = inhibition) at 10uM": 15.4}, {"smiles": "CCOc1ccccc1NC(=S)N(CCC(C)C)C1CCN(C(C)=O)CC1", "hERG current change (%, negative = inhibition) at 10uM": 0.567}, {"smiles": "CN(CC(=O)Nc1ccccc1Br)C(=O)CNC(=O)c1cccs1", "hERG current change (%, negative = inhibition) at 10uM": -7.41}, {"smiles": "Cc1ccccc1CSc1nc2n(n1)C(c1cccs1)C1=C(CCCC1=O)N2", "note": "(stereo not drawn)", "hERG current change (%, negative = inhibition) at 10uM": 0.577}, {"smiles": "Cc1ccc(-c2noc(CN3CCN(c4ccccc4F)CC3)n2)cc1", "hERG current change (%, negative = inhibition) at 10uM": 8.71}, {"smiles": "CCCCc1ccc(CC2S/C(=C(\\C#N)C(=O)N3CCOCC3)N(c3ccccc3)C2=O)cc1", "note": "(stereo not drawn)", "hERG current change (%, negative = inhibition) at 10uM": -12.1}, {"smiles": "CC(=O)NCCCC(=O)NC(CCC(=O)OCc1ccccc1)C(=O)OCc1ccccc1", "note": "(stereo not drawn)", "hERG current change (%, negative = inhibition) at 10uM": -13.7}, {"smiles": "CN(CC(=O)N1CCCc2c1c(=O)oc1ccc(O)cc21)Cc1ccccc1", "hERG current change (%, negative = inhibition) at 10uM": -67.4}, {"smiles": "O=C(/C=C/Nc1ccccc1F)c1cccs1", "hERG current change (%, negative = inhibition) at 10uM": 1.08}, {"smiles": "Cn1c(=O)c(-c2ccccc2[N+](=O)[O-])c(Cl)c2ccccc21", "hERG current change (%, negative = inhibition) at 10uM": -5.62}, {"smiles": "Cc1nnc2n1CCCCC2", "hERG current change (%, negative = inhibition) at 10uM": 20.6}, {"smiles": "COC(=O)c1sccc1NC(=S)Nc1cc(OC)ccc1OC", "hERG current change (%, negative = inhibition) at 10uM": 30.4}, {"smiles": "Cc1cnc(C(=O)OCC(=O)Nc2cc(Cl)cc(Cl)c2)cn1", "hERG current change (%, negative = inhibition) at 10uM": 19.5}, {"smiles": "O=C(c1cccs1)N1CCN(c2ccc([N+](=O)[O-])cc2F)CC1", "hERG current change (%, negative = inhibition) at 10uM": -56.8}, {"smiles": "O=C(CNC(=O)C12CC3CC(CC(C3)C1)C2)NC1=NCCS1", "hERG current change (%, negative = inhibition) at 10uM": 6.83}, {"smiles": "CSCC[C@H](N)C(=O)N1CCC(C(=O)N[C@@H](C)C(=O)NCc2ccc(F)cc2)CC1", "hERG current change (%, negative = inhibition) at 10uM": 3.55}, {"smiles": "CCOC(=O)CON1C(=O)C(=O)N(OCC(=O)OCC)[C@H]2CCCC[C@H]21", "hERG current change (%, negative = inhibition) at 10uM": 12.2}, {"smiles": "N#Cc1cc(-c2ccccc2)cnc1Cl", "hERG current change (%, negative = inhibition) at 10uM": -2.98}, {"smiles": "CCOC(=O)C(C)Oc1cccc2c(=O)n(CC(=O)N3CCc4ccccc43)ccc12", "note": "(stereo not drawn)", "hERG current change (%, negative = inhibition) at 10uM": -9.19}, {"smiles": "O=[N+]([O-])c1cccc(C(=S)N2CCN(c3ccc(F)cc3)CC2)c1", "hERG current change (%, negative = inhibition) at 10uM": -15.9}, {"smiles": "Cc1ccc(CCNC(=O)C2CCC(CNc3c(N4CCCC4)c(=O)c3=O)CC2)cc1", "note": "(stereo not drawn)", "hERG current change (%, negative = inhibition) at 10uM": 15.1}, {"smiles": "O=C(C1=NN[C@@H]2C(=O)N(c3cccc(F)c3)C(=O)[C@H]12)c1cnccn1", "hERG current change (%, negative = inhibition) at 10uM": 6.16}, {"smiles": "COCC(C)N=C1NN=C(c2cc(C)n(Cc3ccccc3Cl)c2C)CS1", "note": "(stereo not drawn)", "hERG current change (%, negative = inhibition) at 10uM": -9.9}, {"smiles": "COc1ccc(S(=O)(=O)NCc2csc(-c3cccnc3)n2)cc1", "hERG current change (%, negative = inhibition) at 10uM": -1.58}, {"smiles": "CCCCCC1CC(CC/C(C)=N/NC(N)=O)C(=O)O1", "note": "(stereo not drawn)", "hERG current change (%, negative = inhibition) at 10uM": -23.2}, {"smiles": "C=CCn1c(SCC(=O)NC2CCCCC2)nnc1C1CCCCC1", "hERG current change (%, negative = inhibition) at 10uM": -1.34}, {"smiles": "O=C(NCCN1CCOCC1)c1ccc2c(c1)N(Cc1ccc(F)cc1)C(=O)c1ccccc1S2(=O)=O", "hERG current change (%, negative = inhibition) at 10uM": 0.647}, {"smiles": "COC(=O)c1ccccc1NC(=O)c1ccc2c(c1)OCCO2", "hERG current change (%, negative = inhibition) at 10uM": 1.86}, {"smiles": "O=C(CNC(=O)c1ccc(Cl)c([N+](=O)[O-])c1)OCN1C(=O)c2ccccc2C1=O", "hERG current change (%, negative = inhibition) at 10uM": 13.5}, {"smiles": "O=C(Nc1cccc(Cl)c1N1CCCC1)c1cccc(-c2cc3ccccc3oc2=O)c1", "hERG current change (%, negative = inhibition) at 10uM": -6.92}]}]}
